Reference: ChEMBL document CHEMBL5726550, “Pyrrolo [2,3-B] pyridine CDK9 kinase inhibitors” (2017)

Each molecule was assayed against CDK9/cyclin T1 (Homo sapiens, UniProt O60563+P50750).
Chain of CDK9/cyclin T1 (O60563 whole entry): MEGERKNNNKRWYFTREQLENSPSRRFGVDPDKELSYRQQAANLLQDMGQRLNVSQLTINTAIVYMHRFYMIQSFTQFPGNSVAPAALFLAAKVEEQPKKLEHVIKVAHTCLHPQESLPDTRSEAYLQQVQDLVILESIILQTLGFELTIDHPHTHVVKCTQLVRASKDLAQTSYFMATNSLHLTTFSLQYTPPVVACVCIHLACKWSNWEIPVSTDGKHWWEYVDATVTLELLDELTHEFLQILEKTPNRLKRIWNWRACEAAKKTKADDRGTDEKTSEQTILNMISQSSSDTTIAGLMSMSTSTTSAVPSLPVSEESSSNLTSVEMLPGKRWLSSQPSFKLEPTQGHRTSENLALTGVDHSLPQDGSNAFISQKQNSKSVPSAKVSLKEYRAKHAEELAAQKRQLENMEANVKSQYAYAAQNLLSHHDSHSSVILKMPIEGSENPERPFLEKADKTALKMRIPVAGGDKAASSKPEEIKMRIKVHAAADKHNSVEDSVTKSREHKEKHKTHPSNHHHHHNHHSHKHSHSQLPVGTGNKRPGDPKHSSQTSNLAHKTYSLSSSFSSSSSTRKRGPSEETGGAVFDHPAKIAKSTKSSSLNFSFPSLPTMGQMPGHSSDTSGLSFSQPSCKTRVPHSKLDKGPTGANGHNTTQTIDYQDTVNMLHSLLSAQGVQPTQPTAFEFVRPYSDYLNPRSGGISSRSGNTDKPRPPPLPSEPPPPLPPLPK
Chain of CDK9/cyclin T1 (P50750 whole entry): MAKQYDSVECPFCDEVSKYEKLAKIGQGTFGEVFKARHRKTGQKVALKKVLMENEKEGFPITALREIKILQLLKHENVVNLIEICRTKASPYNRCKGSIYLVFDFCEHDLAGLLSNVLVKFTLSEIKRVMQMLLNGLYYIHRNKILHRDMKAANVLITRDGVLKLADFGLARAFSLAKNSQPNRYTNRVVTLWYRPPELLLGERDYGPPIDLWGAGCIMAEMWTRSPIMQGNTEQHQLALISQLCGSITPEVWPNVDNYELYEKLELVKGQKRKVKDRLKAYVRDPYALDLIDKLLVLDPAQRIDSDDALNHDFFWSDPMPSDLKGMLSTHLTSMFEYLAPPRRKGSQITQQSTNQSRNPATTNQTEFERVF

Which IC50 does the source give for `COc1ccc(F)cc1-c1c(F)cnc2[nH]c(C3=CC4CCC(C3)N4CC(=O)O)cc12` (stereo not drawn) here?
Its IC50 is 81 nM.

How did the IC50 turn out when `COc1ccc(F)cc1-c1ccnc2[nH]c(C3CC4CN(CC(N)=O)CC4C3)cc12` (stereo not drawn) was run?
The IC50 was 240 nM.

For `COc1ccc(F)cc1-c1ccnc2[nH]c(C3CC4CN(C(=O)CO)CC4C3)cc12` (stereo not drawn), which IC50 is on record?
The IC50 was 130 nM.

With `COc1ccc(F)cc1-c1c(C#N)cnc2[nH]c(C3=CC4CN(CC(=O)N5CC(O)C5)CC4C3)cc12` (stereo not drawn) as the molecule, how does the IC50 read?
Its IC50 is 92 nM.

How did the IC50 turn out when `COc1ccc(F)cc1-c1ccnc2[nH]c(C3CC4CN(CC(O)CO)CC4C3)cc12` (stereo not drawn) was run?
Its IC50 is 340 nM.

How did the IC50 turn out when `COc1ccc(F)cc1-c1ccnc2[nH]c(C3CC4CN(CC(=O)N(C)C5CC(O)C5)CC4C3)cc12` (stereo not drawn) was run?
The IC50 was 290 nM.

`COc1ccc(F)cc1-c1ccnc2[nH]c(C3=CCC(N(C(=O)O)S(=O)(=O)N4CC(O)C4)CC3)cc12` (stereo not drawn) was tested. Which IC50 did it give?
Its IC50 is 32 nM.

With `COc1ccc(F)cc1-c1ccnc2[nH]c(C3=CCC([C@@](N)(C(=O)O)c4ccccc4)CC3)cc12` (stereo partly drawn) as the molecule, how does the IC50 read?
The IC50 was 63 nM.

With `COc1ccc(F)cc1-c1ccnc2c1cc(C1=CCC(C(=O)O)CC1)n2C[C@H](O)CO` (stereo partly drawn) as the molecule, how does the IC50 read?
Its IC50 is 65 nM.

`CS(=O)(=O)N1CCC(c2cc3c(-c4cc(NCc5ccncc5)ccc4F)ccnc3[nH]2)CC1` was tested. Which IC50 did it give?
The IC50 was 91 nM.

For `COc1ccc(F)cc1-c1ccnc2[nH]c(C3=CC4CN(CC(=O)O)CC4C3)cc12` (stereo not drawn), which IC50 is on record?
The IC50 was 71 nM.

With `COc1ccc(F)cc1-c1ccnc2[nH]c(C3=CCCN(CC(=O)N4CCC[C@H]4CO)CC3)cc12` as the molecule, how does the IC50 read?
Its IC50 is 120 nM.

Which IC50 does the source give for `COc1ccc(F)cc1-c1ccnc2[nH]c(C3=CCN(C4CC(C(=O)O)C4)CC3)cc12` (stereo not drawn) here?
Its IC50 is 79 nM.

How did the IC50 turn out when `COc1ccc(F)cc1-c1c(Cl)cnc2[nH]c(C3=CCN([C@H]4CC[C@H](CC(=O)O)CC4)CC3)cc12` was run?
The IC50 was 140 nM.

Which IC50 does the source give for `CS(=O)(=O)N1CCC(c2cc3c(-c4cc(NCc5ccc(C(N)=O)cc5)ccc4F)ccnc3[nH]2)CC1` here?
The IC50 was 190 nM.

With `COc1ccc(F)cc1-c1ccnc2[nH]c(C3CC4CN(C(=O)C5CC(O)C5)CC4C3)cc12` (stereo not drawn) as the molecule, how does the IC50 read?
Its IC50 is 160 nM.

With `COc1ccc(F)cc1-c1ccnc2[nH]c(C3CC4CN(C(=O)NC#N)CC4C3)cc12` (stereo not drawn) as the molecule, how does the IC50 read?
Its IC50 is 59 nM.

With `CNS(=O)(=O)CC(=O)N1CC2CC(c3cc4c(-c5cc(F)ccc5OC)ccnc4[nH]3)CC2C1` (stereo not drawn) as the molecule, how does the IC50 read?
Its IC50 is 64 nM.

With `COc1ccc(F)cc1-c1c(Cl)cnc2[nH]c(C3=CCN([C@H]4CC[C@@H](CC(=O)O)CC4)CC3)cc12` as the molecule, how does the IC50 read?
Its IC50 is 77 nM.

Which IC50 does the source give for `COc1ccc(F)cc1-c1ccnc2[nH]c(C3CC4CN(CC(=O)N(C)CCO)CC4C3)cc12` (stereo not drawn) here?
Its IC50 is 120 nM.

With `COc1ccc(F)cc1-c1c(F)cnc2[nH]c(C3=CC4CN(CC(=O)O)CC4C3)cc12` (stereo not drawn) as the molecule, how does the IC50 read?
Its IC50 is 130 nM.

`CC(C)(O)C(=O)N1CCC=C(c2cc3c(-c4cccc(F)c4F)ccnc3[nH]2)C1` was tested. Which IC50 did it give?
Its IC50 is 790 nM.

For `CCOc1cc(F)c(F)cc1-c1ccnc2[nH]c(C3=CCNCC3)cc12`, which IC50 is on record?
Its IC50 is 68 nM.

With `COc1ccc(F)cc1-c1c(C#N)cnc2[nH]c(C3=CC4CN(CC(=O)O)CC4C3)cc12` (stereo not drawn) as the molecule, how does the IC50 read?
The IC50 was 130 nM.

With `COc1ccc(F)cc1-c1ccnc2[nH]c(C3CC4CN(CC(=O)N(C)C)CC4C3)cc12` (stereo not drawn) as the molecule, how does the IC50 read?
The IC50 was 150 nM.

`COc1ccc(F)cc1-c1ccnc2[nH]c(C3CC4CN(CC(=O)N5CC(O)C5)CC4C3)cc12` (stereo not drawn) was tested. Which IC50 did it give?
Its IC50 is 290 nM.

`COc1ccc(F)cc1-c1ccnc2[nH]c(C3CC4CN(C(C)=O)CC4C3)cc12` (stereo not drawn) was tested. Which IC50 did it give?
Its IC50 is 140 nM.

With `COc1ccc(F)cc1-c1ccnc2[nH]c(C3CC4CN(C(=O)CC#N)CC4C3)cc12` (stereo not drawn) as the molecule, how does the IC50 read?
The IC50 was 75 nM.

`COc1ccc(F)cc1-c1ccnc2[nH]c(C3CCN(Cc4ccc5c(c4)OCO5)CC3)cc12` was tested. Which IC50 did it give?
Its IC50 is 61 nM.

For `CCOC(=O)NS(=O)(=O)N1CC=C(c2cc3c(-c4cc(F)ccc4OC)c(C)cnc3[nH]2)CC1`, which IC50 is on record?
The IC50 was 130 nM.

How did the IC50 turn out when `COc1ccc(F)cc1-c1ccnc2[nH]c(C3=CCN(c4c(N)c(=O)c4=O)CC3)cc12` was run?
The IC50 was 30 nM.

With `CNC(=O)N1CC2CC(c3cc4c(-c5cc(F)ccc5OC)ccnc4[nH]3)CC2C1` (stereo not drawn) as the molecule, how does the IC50 read?
The IC50 was 30 nM.

Which IC50 does the source give for `CC(=O)N1CC=C(c2cc3c(-c4cc(OCc5cc(F)cc(F)c5)ccc4F)ccnc3[nH]2)CC1` here?
Its IC50 is 280 nM.

`COc1ccc(F)cc1-c1c(C#N)cnc2[nH]c(C3=CC4CCC(C3)N4CC(=O)O)cc12` (stereo not drawn) was tested. Which IC50 did it give?
The IC50 was 57 nM.

How did the IC50 turn out when `COc1ccc(F)cc1-c1ccnc2[nH]c(C3CC4CN(CC(=O)N5CCC[C@H]5CO)CC4C3)cc12` (stereo partly drawn) was run?
The IC50 was 130 nM.

`COc1ccc(F)cc1-c1ccnc2[nH]c(C3=CCC(NC45CC(C(=O)O)(C4)C5)CC3)cc12` (stereo not drawn) was tested. Which IC50 did it give?
The IC50 was 78 nM.

With `COc1ccc(F)cc1-c1ccnc2[nH]c(C3=CCN(CC(=O)N4CCC4O)C3)cc12` (stereo not drawn) as the molecule, how does the IC50 read?
The IC50 was 74 nM.

`COc1ccc(F)cc1-c1ccnc2[nH]c(C3=CCN(C4CC5CC(CC(=O)O)CC5C4)CC3)cc12` (stereo not drawn) was tested. Which IC50 did it give?
The IC50 was 390 nM.
